Some targets named below: SHP2 C-SH2 domain E139D; SHP2 N-SH2 domain L43F; SHP2 N-SH2 domain T42A; SHP2 N-SH2 domain T52S.
Common to all, as to assay: enrichment score (SH2-bound / input frequency) (ratio); bacterial display of known human phosphotyrosine sites (pTyr-Var adds point mutants) read by sequencing; higher = stronger binding; tyrosines were phosphorylated by kinases first
Common to all, as to conditions: peptide library: pTyr-Var

In assay [1] the target is SHP2 C-SH2 domain wild-type.
Assay [2] deals with SHP2 N-SH2 domain wild-type.

The other results are listed elsewhere or left out. No stated cut-off is given here; in the data, active = 3.2 or more and inactive = the rest. Only a few entries rise above the background.

The source of these data is the supplement of paper PMC10369915.
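Further: displayed peptides selected on beads carrying the immobilized SH2 domain, with library peptides lacking any tyrosine serving as negative controls.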

Take MSRDIYSTDFF [NTRK1_Y676_YF]: the enrichment score in the assay with SHP2 C-SH2 domain E139D is inactive: 0.904; in assay [1], inactive: 0.814; in the assay with SHP2 N-SH2 domain L43F, inactive: 0.844; with SHP2 N-SH2 domain T42A, inactive: 0.72; in the assay with SHP2 N-SH2 domain T52S, inactive: 0.747; in assay [2] it was inactive: 0.875.

In the case of EASEQHLTKAS [NRCAM_Y739_Y739H], the enrichment score in the assay with SHP2 C-SH2 domain E139D was inactive: 0.519; in assay [1], inactive: 0.372; with SHP2 N-SH2 domain L43F it was inactive: 0.549; in the assay with SHP2 N-SH2 domain T42A it was inactive: 0.473; with SHP2 N-SH2 domain T52S, inactive: 0.651; in assay [2], inactive: 0.539.

On to MSRYIYSTDYY [NTRK1_Y676_D674Y], for which the enrichment score is inactive: 1.44 in the assay with SHP2 C-SH2 domain E139D; inactive: 1.85 in assay [1]; inactive: 1.16 with SHP2 N-SH2 domain L43F; inactive: 1.01 with SHP2 N-SH2 domain T42A; inactive: 1.2 with SHP2 N-SH2 domain T52S; inactive: 1.23 in assay [2].

Consider QMIETYFDFRL [NSMF_Y506], for which the enrichment score in the assay with SHP2 C-SH2 domain E139D was inactive: 1.68; in assay [1], inactive: 2.07; in the assay with SHP2 N-SH2 domain L43F, inactive: 1.72; with SHP2 N-SH2 domain T42A, inactive: 1.7; in the assay with SHP2 N-SH2 domain T52S, active: 4.53; in assay [2], inactive: 1.96.

Turning to INMKEYCKKDF [NTN1_Y490_K489E_YF], the enrichment score with SHP2 C-SH2 domain E139D is inactive: 0.947; in assay [1] it was inactive: 0.97; in the assay with SHP2 N-SH2 domain L43F it was inactive: 0.893; with SHP2 N-SH2 domain T42A, inactive: 0.728; with SHP2 N-SH2 domain T52S, inactive: 0.776; in assay [2] it was inactive: 1.05.

As for MSRDVYSTDYY [NTRK2_Y702], the enrichment score with SHP2 C-SH2 domain E139D is inactive: 0.774; in assay [1], inactive: 0.607; in the assay with SHP2 N-SH2 domain L43F, inactive: 0.565; in the assay with SHP2 N-SH2 domain T42A, inactive: 0.557; with SHP2 N-SH2 domain T52S, inactive: 0.747; in assay [2], inactive: 0.798.

Regarding KIKLNYTLPQD [NRAP_Y523_N519I], the enrichment score with SHP2 C-SH2 domain E139D was inactive: 1.07; in assay [1], inactive: 0.846; with SHP2 N-SH2 domain L43F, inactive: 1.03; with SHP2 N-SH2 domain T42A it was inactive: 1.03; in the assay with SHP2 N-SH2 domain T52S, inactive: 1.19; in assay [2] it was inactive: 1.2.

ISRDVYSTDYY [NTRK2_Y702_M697I]: the enrichment score with SHP2 C-SH2 domain E139D was inactive: 0.644; in assay [1] it was inactive: 0.837; with SHP2 N-SH2 domain L43F it was inactive: 0.547; in the assay with SHP2 N-SH2 domain T42A, inactive: 0.472; with SHP2 N-SH2 domain T52S, inactive: 0.742; in assay [2], inactive: 0.718.

Take KVASVYEALGF [NT5C_Y65_P68L]: the enrichment score with SHP2 C-SH2 domain E139D is inactive: 1; in assay [1], inactive: 0.904; with SHP2 N-SH2 domain L43F, inactive: 0.981; in the assay with SHP2 N-SH2 domain T42A, inactive: 1.04; in the assay with SHP2 N-SH2 domain T52S, inactive: 0.831; in assay [2], inactive: 0.961.

LMVFEYMRHGD [NTRK1_Y591]: the enrichment score with SHP2 C-SH2 domain E139D was inactive: 2.83; in assay [1], inactive: 2.25; with SHP2 N-SH2 domain L43F, inactive: 2.8; with SHP2 N-SH2 domain T42A, inactive: 2.55; with SHP2 N-SH2 domain T52S, inactive: 2.58; in assay [2] it was inactive: 2.83.

Consider LGKLTYPVGFW [NTHL1_Y177_I176T], for which the enrichment score with SHP2 C-SH2 domain E139D was inactive: 1.47; in assay [1], inactive: 1.19; in the assay with SHP2 N-SH2 domain L43F it was inactive: 1; with SHP2 N-SH2 domain T42A, inactive: 1.44; with SHP2 N-SH2 domain T52S it was inactive: 1.6; in assay [2], inactive: 1.35.

On to INMKEYCKKDY [NTN1_Y490_K489E], for which the enrichment score is inactive: 0.928 with SHP2 C-SH2 domain E139D; inactive: 1.24 in assay [1]; inactive: 1.01 with SHP2 N-SH2 domain L43F; inactive: 0.867 with SHP2 N-SH2 domain T42A; inactive: 0.821 in the assay with SHP2 N-SH2 domain T52S; inactive: 1.55 in assay [2].

As to QMIETYFDFRV [NSMF_Y506_L511V], the enrichment score is inactive: 1.68 with SHP2 C-SH2 domain E139D; inactive: 1.63 in assay [1]; inactive: 1.61 with SHP2 N-SH2 domain L43F; inactive: 1.4 in the assay with SHP2 N-SH2 domain T42A; inactive: 1.85 with SHP2 N-SH2 domain T52S; inactive: 1.53 in assay [2].

In the case of QLHEHYKIHKE [NSMAF_Y626], the enrichment score with SHP2 C-SH2 domain E139D is inactive: 2.01; in assay [1], inactive: 1.91; in the assay with SHP2 N-SH2 domain L43F, inactive: 1.86; with SHP2 N-SH2 domain T42A, inactive: 2.04; with SHP2 N-SH2 domain T52S, inactive: 2.06; in assay [2], inactive: 2.04.

Turning to IENPQYFSDAC [NTRK1_Y496], the enrichment score is inactive: 0.714 with SHP2 C-SH2 domain E139D; inactive: 0.7 in assay [1]; inactive: 0.688 with SHP2 N-SH2 domain L43F; inactive: 0.65 with SHP2 N-SH2 domain T42A; inactive: 0.627 with SHP2 N-SH2 domain T52S; inactive: 0.755 in assay [2].

With QAPPVYLDVLG [NTRK1_Y791], the enrichment score in the assay with SHP2 C-SH2 domain E139D was inactive: 0.806; in assay [1], inactive: 0.798; with SHP2 N-SH2 domain L43F it was inactive: 0.904; with SHP2 N-SH2 domain T42A, inactive: 2.02; with SHP2 N-SH2 domain T52S it was inactive: 1.12; in assay [2], inactive: 0.707.

Consider MPQNEYIELHC [NSA2_Y6_R11C], for which the enrichment score was inactive: 0.885 in the assay with SHP2 C-SH2 domain E139D; inactive: 0.706 in assay [1]; inactive: 0.758 in the assay with SHP2 N-SH2 domain L43F; inactive: 0.581 with SHP2 N-SH2 domain T42A; inactive: 0.823 in the assay with SHP2 N-SH2 domain T52S; inactive: 0.668 in assay [2].

On to RAQIRYAQEHD [NSD1_Y1987_R1984Q], for which the enrichment score with SHP2 C-SH2 domain E139D was inactive: 0.508; in assay [1], inactive: 0.432; with SHP2 N-SH2 domain L43F it was inactive: 0.485; with SHP2 N-SH2 domain T42A, inactive: 0.992; with SHP2 N-SH2 domain T52S it was inactive: 0.36; in assay [2] it was inactive: 0.422.

For HQKKPYCHAHN [NRAP_Y53], the enrichment score was active: 3.83 with SHP2 C-SH2 domain E139D; active: 3.46 in assay [1]; active: 3.7 in the assay with SHP2 N-SH2 domain L43F; inactive: 2.83 with SHP2 N-SH2 domain T42A; active: 3.29 with SHP2 N-SH2 domain T52S; active: 3.63 in assay [2].
